# Data as given in paper PMC12820563.
# This is one part of the list. The list includes weakly bound sequences.
# Molecular target: T1, MBP-FoxP3dN (UniProt Q99JB6)
# T1 sequence: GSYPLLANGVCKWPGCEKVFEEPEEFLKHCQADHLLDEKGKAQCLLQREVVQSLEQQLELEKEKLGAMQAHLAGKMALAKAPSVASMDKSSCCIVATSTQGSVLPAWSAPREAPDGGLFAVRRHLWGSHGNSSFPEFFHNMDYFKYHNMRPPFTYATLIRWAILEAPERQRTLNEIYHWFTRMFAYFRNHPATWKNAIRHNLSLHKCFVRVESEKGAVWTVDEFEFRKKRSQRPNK
# Assay: PD-seq (MBP pull-down with sequencing)
# Conditions: 20 mM Tris-HCl pH 7.5, 100 mM NaCl, 1.5 mM MgCl2, 0.4 uM protein, 0.1 uM dsDNA library, 30 min, room temperature, amylose pull-down; high values mean tight binding; double strand, one strand shown
row,Sequence,binding signal (RPM ratio (pull-down/input))
1,GATGATTGTTCTCCCAGCTGATGAATTCCACAAATCGAGTAAACAAATTTTCCTAATCTTTCTGTTCAAGCGCCATCTAC,0.223
2,GATGATTGTTCTCCCAGCTGATGAATTGGCCTCTTCGAGTAAACAAATTTTCCTAATCTTTCTGTTCAAGCGCCATCTAC,1.37
3,GATGATTGTTCTCCCAGCTGATGAATTTCGAGTTTCGAGTAAACAAATTTTCCTAATCTTTCTGTTCAAGCGCCATCTAC,1
4,GATGATTGTTCTCCCAGCTGATGAATTAAGCTTCTCGAGTAAACAAATTTTCCTAATCTTTCTGTTCAAGCGCCATCTAC,1.78
5,GATGATTGTTCTCCCAGCTGATGAATTACTCGAATCGAGTAAACAAATTTTCCTAATCTTTCTGTTCAAGCGCCATCTAC,0.269
6,GATGATTGTTCTCCCAGCTGATGAATTTAGAACATCGAGTAAACAAATTTTCCTAATCTTTCTGTTCAAGCGCCATCTAC,0.579
7,GATGATTGTTCTCCCAGCTGATGAATTATTGCACTCGAGTAAACAAATTTTCCTAATCTTTCTGTTCAAGCGCCATCTAC,1.36
8,GATGATTGTTCTCCCAGCTGATGAATTGCAACAGTCGAGTAAACAAATTTTCCTAATCTTTCTGTTCAAGCGCCATCTAC,2.42
9,GATGATTGTTCTCCCAGCTGATGAATTAGATAGATCGAGTAAACAAATTTTCCTAATCTTTCTGTTCAAGCGCCATCTAC,0.342
10,GATGATTGTTCTCCCAGCTGATGAATTCTTCCTGTCGAGTAAACAAATTTTCCTAATCTTTCTGTTCAAGCGCCATCTAC,0.18
11,GATGATTGTTCTCCCAGCTGATGAATTAAGTGCCTCGAGTAAACAAATTTTCCTAATCTTTCTGTTCAAGCGCCATCTAC,0.884
12,GATGATTGTTCTCCCAGCTGATGAATTCAGGACGTCGAGTAAACAAATTTTCCTAATCTTTCTGTTCAAGCGCCATCTAC,0.259
13,GATGATTGTTCTCCCAGCTGATGAATTACGTCAATCGAGTAAACAAATTTTCCTAATCTTTCTGTTCAAGCGCCATCTAC,0.466
14,GATGATTGTTCTCCCAGCTGATGAATTTACCGCTTCGAGTAAACAAATTTTCCTAATCTTTCTGTTCAAGCGCCATCTAC,0.539
15,GATGATTGTTCTCCCAGCTGATGAATTCCTGAAATCGAGTAAACAAATTTTCCTAATCTTTCTGTTCAAGCGCCATCTAC,0.237
16,GATGATTGTTCTCCCAGCTGATGAATTTAAGCTATCGAGTAAACAAATTTTCCTAATCTTTCTGTTCAAGCGCCATCTAC,0.511

row,Sequence,binding signal (RPM ratio (pull-down/input))
1,GATGATTGTTCTCCCAGCTGATGAATTCTATCAGTCGAGTAAACAAATTTTCCTAATCTTTCTGTTCAAGCGCCATCTAC,0.44
2,GATGATTGTTCTCCCAGCTGATGAATTCGTGCCTTCGAGTAAACAAATTTTCCTAATCTTTCTGTTCAAGCGCCATCTAC,2.26
3,GATGATTGTTCTCCCAGCTGATGAATTCCCTCAGTCGAGTAAACAAATTTTCCTAATCTTTCTGTTCAAGCGCCATCTAC,0.214
4,GATGATTGTTCTCCCAGCTGATGAATTTTCTACATCGAGTAAACAAATTTTCCTAATCTTTCTGTTCAAGCGCCATCTAC,0.336
5,GATGATTGTTCTCCCAGCTGATGAATTTCCACGGTCGAGTAAACAAATTTTCCTAATCTTTCTGTTCAAGCGCCATCTAC,0.19
6,GATGATTGTTCTCCCAGCTGATGAATTCGTGGACTCGAGTAAACAAATTTTCCTAATCTTTCTGTTCAAGCGCCATCTAC,0.554
7,GATGATTGTTCTCCCAGCTGATGAATTATTGTCTTCGAGTAAACAAATTTTCCTAATCTTTCTGTTCAAGCGCCATCTAC,1.5
8,GATGATTGTTCTCCCAGCTGATGAATTCATAGCCTCGAGTAAACAAATTTTCCTAATCTTTCTGTTCAAGCGCCATCTAC,0.493
9,GATGATTGTTCTCCCAGCTGATGAATTGCGTAGTTCGAGTAAACAAATTTTCCTAATCTTTCTGTTCAAGCGCCATCTAC,1.39
10,GATGATTGTTCTCCCAGCTGATGAATTGTGCTCGTCGAGTAAACAAATTTTCCTAATCTTTCTGTTCAAGCGCCATCTAC,0.963
11,GATGATTGTTCTCCCAGCTGATGAATTTGGTCTGTCGAGTAAACAAATTTTCCTAATCTTTCTGTTCAAGCGCCATCTAC,0.534
12,GATGATTGTTCTCCCAGCTGATGAATTGGCGGAATCGAGTAAACAAATTTTCCTAATCTTTCTGTTCAAGCGCCATCTAC,0.249
13,GATGATTGTTCTCCCAGCTGATGAATTGAGCGGGTCGAGTAAACAAATTTTCCTAATCTTTCTGTTCAAGCGCCATCTAC,0.401
14,GATGATTGTTCTCCCAGCTGATGAATTCAAGATATCGAGTAAACAAATTTTCCTAATCTTTCTGTTCAAGCGCCATCTAC,0.294
15,GATGATTGTTCTCCCAGCTGATGAATTAGTGTGATCGAGTAAACAAATTTTCCTAATCTTTCTGTTCAAGCGCCATCTAC,1.17
